Among all 50,000 compounds or so, about 800 (1.6%) showed an effect of 50% or more. Some of the results follow.
Biological target: Bcl-2-like protein 10 (Homo sapiens) (UniProt Q9HD36)
Assay: Phenotype converters, Bcl-B/TR3 peptide binding displacement, primary biochemical FP (AID 1240);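 further: 0% = Bcl-B with tracer peptide and DMSO and 100% = tracer peptide lacking Bcl-B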
Conditions: GST-Bcl-B / FITC-TR3 peptide fluorescence polarization; stronger effect = higher value; compound at 3.75 mg/L

Sequence of UniProt Q9HD36 (Q9HD36 whole entry, looked up): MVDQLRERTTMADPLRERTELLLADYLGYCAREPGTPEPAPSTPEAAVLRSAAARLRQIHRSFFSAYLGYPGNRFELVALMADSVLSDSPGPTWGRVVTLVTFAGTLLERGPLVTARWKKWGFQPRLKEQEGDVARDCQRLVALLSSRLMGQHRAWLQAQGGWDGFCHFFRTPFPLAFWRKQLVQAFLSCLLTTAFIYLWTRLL

Q: With CCOc1ccccc1NC(=O)C(=O)NCCO as the compound, how does the displacement read?
A: The displacement was 1.8%.

Q: CC(=O)c1cc(C(=O)Nc2ccccc2C(=O)O)oc1C was tested. Which displacement did it give?
A: Its displacement is -5%.

Q: How did the displacement turn out when C=C1CC2C(CCC3(C)C2CCC3(O)C(C)=O)C2(C)CCC(=O)C=C12 (stereo not given) was run?
A: Its displacement is -11.8%.

Q: COc1ccc(N(CC(=O)Nc2cccc(C(F)(F)F)c2)S(=O)(=O)c2ccccc2)cc1Cl was tested. Which displacement did it give?
A: The displacement was 12.6%.

Q: How did the displacement turn out when O=C(Nc1cccc(Br)c1)c1ccn(C(=O)c2ccc(Cl)cc2)n1 was run?
A: Its displacement is -7%.

Q: Which displacement does the source give for CC(=O)c1ccc(NC(=S)NC(=O)/C=C/c2ccccc2)cc1 here?
A: The displacement was 41.4%.

Q: For Fc1c(F)c(F)c(SCCc2ccncc2)c(F)c1F, which displacement is on record?
A: The displacement was 7.3%.

Q: How did the displacement turn out when COc1ccc(C(=O)N/C(=C\c2ccc(Cl)cc2)C(=O)NCC2CCCO2)cc1 (stereo not given) was run?
A: The displacement was 4.4%.

Q: For CCOc1ccc(NC(=S)NCc2ccco2)cc1, which displacement is on record?
A: The displacement was 8.5%.

Q: For COc1cc(/C=C2/C(=O)NC(=O)N(c3cc(C)cc(C)c3)C2=O)cc(Br)c1OC, which displacement is on record?
A: Its displacement is 10.9%.

Q: How did the displacement turn out when COc1ccc(OC)c(/C=C2\SC(=S)N(NC(=O)c3ccccc3)C2=O)c1 was run?
A: The displacement was 1.8%.

Q: CC(C)=NNc1nnc2c(n1)[nH]c1ccccc12 was tested. Which displacement did it give?
A: The displacement was 15.9%.

Q: COC(=O)C1=C(C)N=c2s/c(=C\c3ccc(N(C)C)cc3)c(=O)n2C1c1ccccc1Cl (stereo not given) was tested. Which displacement did it give?
A: The displacement was 6.5%.

Q: With O=C(CSc1ncn[nH]1)Nc1ccc(Cl)c(Cl)c1 as the compound, how does the displacement read?
A: The displacement was 15.5%.

Q: CCC1(C(O)(C#CCN2CCCCC2)c2ccccc2)CCCC1 (stereo not given) was tested. Which displacement did it give?
A: The displacement was 3%.

Q: O=C1C(=O)N(c2cccnc2)C(c2ccc3c(c2)OCO3)/C1=C(\O)c1ccccc1 (stereo not given) was tested. Which displacement did it give?
A: Its displacement is -7%.

Q: With CCOC(=O)c1c(NC(=O)CC2SC(N)=NC2=O)sc2c1CCCC2 (stereo not given) as the compound, how does the displacement read?
A: The displacement was 6.3%.

Q: Which displacement does the source give for COc1cc2c(C)nc3c(cnn3-c3ccccc3)c2cc1OC here?
A: Its displacement is -5.8%.

Q: O=C(COc1ccccc1)Nc1cc(C(F)(F)F)cc(C(F)(F)F)c1 was tested. Which displacement did it give?
A: Its displacement is 8.5%.

Q: Which displacement does the source give for NC1=NC(=O)C(CC(=O)Nc2ccc(Cl)cc2)S1 (stereo not given) here?
A: Its displacement is 0.4%.

Q: O=c1c2ccccc2nc(Cc2ccccc2)n1Nc1ccccc1 was tested. Which displacement did it give?
A: Its displacement is -11.2%.

Q: How did the displacement turn out when O=C(Nc1ccc2nn(-c3ccc(Cl)cc3)nc2c1)c1ccccc1 was run?
A: The displacement was -1.9%.

Q: COC(=O)C1=C(C)N(C)C(=O)/C1=C\c1ccccc1Cl was tested. Which displacement did it give?
A: Its displacement is 18.1%.

Q: CCc1cc2c(=O)c(-c3nc4ccccc4n3C)coc2c(CN2CCN(C)CC2)c1O was tested. Which displacement did it give?
A: Its displacement is 40.6%.

Q: How did the displacement turn out when O=C(CSc1nnc(-c2ccco2)n1-c1ccccc1)NCCOc1ccccc1 was run?
A: The displacement was 7.5%.

Q: COc1ccc(CCNC(=O)c2cccc3ccccc23)cc1OC was tested. Which displacement did it give?
A: Its displacement is -11.3%.

Q: How did the displacement turn out when O=C1CSC(c2cn(-c3ccccc3)nc2-c2ccc(Cl)cc2)N1Cc1ccccc1 (stereo not given) was run?
A: The displacement was -6.5%.

Q: O=C1NCc2ccccc2-c2ccccc21 was tested. Which displacement did it give?
A: The displacement was 8.6%.

Q: How did the displacement turn out when CC(C)CCNCC(O)Cn1c2ccc(Br)cc2c2cc(Br)ccc21 (stereo not given) was run?
A: Its displacement is 5.2%.

Q: For CCCC(=O)Nc1ccc(C(=O)/C=C/c2ccc(Cl)cc2Cl)cc1, which displacement is on record?
A: The displacement was -10.9%.

Q: How did the displacement turn out when COc1cc(C(=O)NCCOc2ccc(C)cc2)cc(OC)c1OC was run?
A: Its displacement is -3.8%.

Q: C=CCN1C(=O)/C(=C\c2cc(I)c(O)c(OC)c2)C(=O)NC1=S was tested. Which displacement did it give?
A: The displacement was -1%.

Q: How did the displacement turn out when O=C(N/C(=C\c1cn(-c2ccccc2)nc1-c1ccccc1)C(=O)N1CCOCC1)c1ccccc1 was run?
A: The displacement was 12.8%.

Q: For CCn1c2ccccc2c2cc(C#N)c(N)nc21, which displacement is on record?
A: The displacement was 11.4%.

Q: How did the displacement turn out when CC(C)CC(=O)Nc1cccc(Cl)c1Cl was run?
A: Its displacement is -2.6%.

Q: For COc1cccc(C(=O)NCCNc2ccc(C(F)(F)F)cc2[N+](=O)[O-])c1, which displacement is on record?
A: Its displacement is -8.9%.

Q: How did the displacement turn out when CCOC(=O)C1(P(=O)(c2ccccc2)c2ccccc2)CCC1 was run?
A: The displacement was 1.4%.

Q: Which displacement does the source give for Cc1cccc(N2CCC(N=CN3CCCCC3)=N2)c1 here?
A: The displacement was 10.5%.

Q: Which displacement does the source give for N#C/C(=C/c1cccc(O)c1)C(=O)Nc1cccc(Br)c1 here?
A: Its displacement is -4.3%.

Q: Which displacement does the source give for Cc1cccc(NC(=O)C2CC2(c2ccccc2)c2ccccc2)c1C (stereo not given) here?
A: Its displacement is 4.1%.

Q: For COC(=O)c1ccccc1NC(=O)CN(c1ccc(C)c(Cl)c1)S(C)(=O)=O, which displacement is on record?
A: Its displacement is 5.1%.

Q: For CC1=NN(c2cccc(Cl)c2)C(=O)/C1=C\c1c(C)[nH]n(-c2ccccc2)c1=O, which displacement is on record?
A: The displacement was -9.1%.

Q: With CC1=C(C(=O)OCc2ccc3c(c2)OCO3)C(c2ccc(N(C)C)cc2)NC(=O)N1 (stereo not given) as the compound, how does the displacement read?
A: The displacement was -40.1%.

Q: Cc1cc(C)c(S(=O)(=O)Nc2ccc(C(C)C)cc2)c(C)c1 was tested. Which displacement did it give?
A: The displacement was 7.9%.

Q: With CN(C)C(=O)c1cnn(-c2ccccc2)c1NC(=O)c1ccc(Br)cc1 as the compound, how does the displacement read?
A: The displacement was -1%.

Q: Which displacement does the source give for O=C(Nc1cccc(Cl)c1)c1ccc(-n2cnnn2)cc1 here?
A: The displacement was -10%.

Q: COc1cccc(C(=O)N2CCN(CCCc3ccccc3)CC2)c1OC was tested. Which displacement did it give?
A: Its displacement is 3.6%.

Q: For O=C(Cc1ccccc1)Nc1cc(Cl)c(Cl)cc1Cl, which displacement is on record?
A: Its displacement is -6.7%.

Q: Which displacement does the source give for CC1(O)CC(=O)C(C(=O)c2ccccc2)C(c2cccc([N+](=O)[O-])c2)C1C(=O)c1ccccc1 (stereo not given) here?
A: The displacement was -2.3%.

Q: With CCc1c(C)sc(NC(=O)c2ccc(OC)c(OC)c2)c1C(=O)OC as the compound, how does the displacement read?
A: The displacement was 3.2%.

Q: How did the displacement turn out when Cc1ccc(NC2=C(Cl)C(=O)N(c3ccc(Br)cc3)C2=O)c(C)c1 was run?
A: The displacement was 7.7%.

Q: How did the displacement turn out when CCOc1ccc2nc(SCC(=O)c3cccc([N+](=O)[O-])c3)sc2c1 was run?
A: Its displacement is -0.6%.

Q: For Cc1cccc(C(C)C)c1NC(=O)COc1ccc2c(C)cc(=O)oc2c1, which displacement is on record?
A: Its displacement is 9.4%.

Q: With Cc1oc2c(cc(O)c3ccccc32)c1C(=O)c1ccccc1 as the compound, how does the displacement read?
A: Its displacement is -1.7%.

Q: Which displacement does the source give for Oc1ccc(/C=N/Nc2nncc(-c3ccccc3)n2)c(O)c1O here?
A: The displacement was 21.1%.
